# Results published in the supplement of paper PMC8728848.
# The other results are listed elsewhere or left out.
# B1: chitinase 3-like protein 2 (Homo sapiens) (protein)
# chain: YKLVCYFTQWSQDRQEPGKFTPENIDPFLCSHLIYSFASIENNKVIIKDKSEVMLYQTINSLKTKNPKLKILLSIGGYLFGSKGFHPMVDSSTSRLEFINSIILFLRNHNFDGLDVSWIYPDQKENTHFTVLIHELAEAFQKDFTKSTKERLLLTAGVSAGRQMIDNSYQVEKLAKDLDFINLLSFDFHGSWEKPLITGHNSPLSKGWQDRGPSSYYNVEYAVGYWIHKGMPSEKVVMGIPTYGHSFTLASAETTVGAPASGPGAAGPITESSGFLAYYEICQFLKGAKITRLQDQQVPYAVKGNQWVGYDDVKSMETKVQFLKNLNLGGAMIWSIDMDDFTGKSCNQGPYPLVQAVKRSLGSL
# Experiments:
# Experiment in all cases: glycan array binding signal (z-score within array); higher = stronger binding
# Settings in all cases: glycan notation: IUPAC condensed, linker removed
# [1] = molecular target: GlcNAc(b1-4)[GlcNAc(b1-6)]GalNAc
# Procedure, shortened: (§1)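 The binding signal is a Z-score computed within each array and averaged over linkers. Arrays of the same protein sequence at different concentrations or buffers were also averaged together. Data originate from 3228 arrays in the Consortium for Functional Glycomics database, kept only where the protein sequence was available.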
# [2] = molecular target: GlcNAc(b1-6)Gal(b1-4)GlcNAc
# Procedure, shortened: as §1
# GlcNAc(b1-6)GalNAc = molecular target: GlcNAc(b1-6)GalNAc
# Procedure, shortened: as §1
# Kdn(a2-3)Gal(b1-3)GlcNAc = molecular target: Kdn(a2-3)Gal(b1-3)GlcNAc
# Procedure, shortened: as §1
# Kdn(a2-3)Gal(b1-4)GlcNAc = molecular target: Kdn(a2-3)Gal(b1-4)GlcNAc
# Procedure, shortened: as §1
# [3] = molecular target: Man(a1-2)Man(a1-2)Man(a1-3)Man
# Procedure, shortened: as §1
# [4] = molecular target: Man(a1-2)Man(a1-2)Man(a1-3)[Man(a1-2)Man(a1-3)[Man(a1-2)Man(a1-6)]Man(a1-6)]Man(b1-4)GlcNAc(b1-4)GlcNAc
# Procedure, shortened: as §1
# [5] = molecular target: Man(a1-2)Man(a1-2)Man(a1-3)[Man(a1-2)Man(a1-6)[Man(a1-3)]Man(a1-6)]Man(b1-4)GlcNAc(b1-4)GlcNAc
# Procedure, shortened: as §1
# [6] = molecular target: Man(a1-2)Man(a1-2)Man(a1-6)[Man(a1-3)]Man
# Procedure, shortened: as §1
# Man(a1-2)Man(a1-3)Man = molecular target: Man(a1-2)Man(a1-3)Man
# Procedure, shortened: as §1
# [7] = molecular target: Man(a1-2)Man(a1-3)[Man(a1-2)Man(a1-6)]Man
# Procedure, shortened: as §1
# [8] = molecular target: Man(a1-2)Man(a1-3)[Man(a1-3)[Man(a1-6)]Man(a1-6)]Man(b1-4)GlcNAc(b1-4)GlcNAc
# Procedure, shortened: as §1
# [9] = molecular target: Man(a1-2)Man(a1-3)[Man(a1-6)]Man(a1-6)[Man(a1-2)Man(a1-3)]Man(b1-4)GlcNAc(b1-4)GlcNAc
# Procedure, shortened: as §1
# Man(a1-3)[Man(a1-6)]Man = molecular target: Man(a1-3)[Man(a1-6)]Man
# Procedure, shortened: as §1
# [10] = molecular target: Man(a1-3)[Man(a1-6)]Man(a1-6)[Man(a1-3)]Man(b1-4)GlcNAc(b1-4)GlcNAc
# Procedure, shortened: as §1
# [11] = molecular target: Man(a1-3)[Man(a1-6)]Man(b1-4)GlcNAc(b1-4)GlcNAc
# Procedure, shortened: as §1
# Man(b1-4)GlcNAc = molecular target: Man(b1-4)GlcNAc
# Procedure, shortened: as §1
# Neu5Ac(a2-3)Gal = molecular target: Neu5Ac(a2-3)Gal
# Procedure, shortened: as §1
# [12] = molecular target: Neu5Ac(a2-3)Gal(b1-3)GalNAc
# Procedure, shortened: as §1
# [13] = molecular target: Neu5Ac(a2-3)Gal(b1-3)GalNAc(b1-3)Gal(a1-4)Gal(b1-4)Glc
# Procedure, shortened: as §1
# [14] = molecular target: Neu5Ac(a2-3)Gal(b1-3)GalNAc(b1-4)[Neu5Ac(a2-3)]Gal(b1-4)Glc
# Procedure, shortened: as §1
# [15] = molecular target: Neu5Ac(a2-3)Gal(b1-3)GalNAc6S
# Procedure, shortened: as §1
# [16] = molecular target: Neu5Ac(a2-3)Gal(b1-3)GlcNAc
# Procedure, shortened: as §1
# [17] = molecular target: Neu5Ac(a2-3)Gal(b1-3)GlcNAc(b1-3)Gal(b1-4)GlcNAc
# Procedure, shortened: as §1
# [18] = molecular target: Neu5Ac(a2-3)Gal(b1-3)GlcNAc6S
# Procedure, shortened: as §1
# [19] = molecular target: Neu5Ac(a2-3)Gal(b1-3)[Fuc(a1-4)]GlcNAc
# Procedure, shortened: as §1
# [20] = molecular target: Neu5Ac(a2-3)Gal(b1-3)[Fuc(a1-4)]GlcNAc(b1-3)Gal(b1-4)[Fuc(a1-3)]GlcNAc
# Procedure, shortened: as §1
# [21] = molecular target: Neu5Ac(a2-3)Gal(b1-3)[Neu5Ac(a2-3)Gal(b1-4)]GlcNAc
# Procedure, shortened: as §1
# [22] = molecular target: Neu5Ac(a2-3)Gal(b1-3)[Neu5Ac(a2-6)]GalNAc
# Procedure, shortened: as §1
# Neu5Ac(a2-3)Gal(b1-4)Glc = molecular target: Neu5Ac(a2-3)Gal(b1-4)Glc
# Procedure, shortened: as §1
# [23] = molecular target: Neu5Ac(a2-3)Gal(b1-4)GlcNAc
# Procedure, shortened: as §1
# [24] = molecular target: Neu5Ac(a2-3)Gal(b1-4)GlcNAc(b1-3)Gal(b1-4)GlcNAc
# Procedure, shortened: as §1
# [25] = molecular target: Neu5Ac(a2-3)Gal(b1-4)GlcNAc(b1-3)Gal(b1-4)GlcNAc(b1-3)Gal(b1-4)GlcNAc
# Procedure, shortened: as §1
# [26] = molecular target: Neu5Ac(a2-3)Gal(b1-4)GlcNAc(b1-3)Gal(b1-4)[Fuc(a1-3)]GlcNAc
# Procedure, shortened: as §1
binder,measurement,setting,value
B1,glycan array binding signal (z-score),[1],-0.226
same,glycan array binding signal (z-score),[2],-0.237
same,glycan array binding signal (z-score),GlcNAc(b1-6)GalNAc,-0.222
same,glycan array binding signal (z-score),Kdn(a2-3)Gal(b1-3)GlcNAc,-0.247
same,glycan array binding signal (z-score),Kdn(a2-3)Gal(b1-4)GlcNAc,-0.216
same,glycan array binding signal (z-score),[3],-0.12
same,glycan array binding signal (z-score),[4],0.514
same,glycan array binding signal (z-score),[5],0.124
same,glycan array binding signal (z-score),[6],-0.22
same,glycan array binding signal (z-score),Man(a1-2)Man(a1-3)Man,-0.268
same,glycan array binding signal (z-score),[7],-0.231
same,glycan array binding signal (z-score),[8],-0.257
same,glycan array binding signal (z-score),[9],0.235
same,glycan array binding signal (z-score),Man(a1-3)[Man(a1-6)]Man,-0.22
same,glycan array binding signal (z-score),[10],0.17
same,glycan array binding signal (z-score),[11],0.216
same,glycan array binding signal (z-score),Man(b1-4)GlcNAc,-0.265
same,glycan array binding signal (z-score),Neu5Ac(a2-3)Gal,-0.255
same,glycan array binding signal (z-score),[12],-0.221
same,glycan array binding signal (z-score),[13],-0.268
same,glycan array binding signal (z-score),[14],-0.053
same,glycan array binding signal (z-score),[15],-0.271
same,glycan array binding signal (z-score),[16],-0.176
same,glycan array binding signal (z-score),[17],-0.214
same,glycan array binding signal (z-score),[18],-0.24
same,glycan array binding signal (z-score),[19],-0.23
same,glycan array binding signal (z-score),[20],-0.21
same,glycan array binding signal (z-score),[21],-0.116
same,glycan array binding signal (z-score),[22],-0.239
same,glycan array binding signal (z-score),Neu5Ac(a2-3)Gal(b1-4)Glc,-0.233
same,glycan array binding signal (z-score),[23],-0.242
same,glycan array binding signal (z-score),[24],-0.269
same,glycan array binding signal (z-score),[25],-0.127
same,glycan array binding signal (z-score),[26],-0.214
